# Reference: article PMC4336329 (PLoS ONE, 2015)
# About 14,000 (4.5%) of roughly 310,000 compounds showed an effect of 50% or more. Effects have a minus sign here. The list shows a part of the results. Where a SMILES comes first, the peptide text is derived from it.
# Molecular target: human ether-à-go-go-related gene (hERG) potassium channel (human, UniProt Q12809)
# Assay: primary screen, population patch clamp on CHO cells stably expressing hERG
# 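Note: peak tail current of the secondary pulse compared with the same well before compound.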
# human ether-à-go-go-related gene (hERG) potassium channel, sequence (Q12809 whole entry, looked up): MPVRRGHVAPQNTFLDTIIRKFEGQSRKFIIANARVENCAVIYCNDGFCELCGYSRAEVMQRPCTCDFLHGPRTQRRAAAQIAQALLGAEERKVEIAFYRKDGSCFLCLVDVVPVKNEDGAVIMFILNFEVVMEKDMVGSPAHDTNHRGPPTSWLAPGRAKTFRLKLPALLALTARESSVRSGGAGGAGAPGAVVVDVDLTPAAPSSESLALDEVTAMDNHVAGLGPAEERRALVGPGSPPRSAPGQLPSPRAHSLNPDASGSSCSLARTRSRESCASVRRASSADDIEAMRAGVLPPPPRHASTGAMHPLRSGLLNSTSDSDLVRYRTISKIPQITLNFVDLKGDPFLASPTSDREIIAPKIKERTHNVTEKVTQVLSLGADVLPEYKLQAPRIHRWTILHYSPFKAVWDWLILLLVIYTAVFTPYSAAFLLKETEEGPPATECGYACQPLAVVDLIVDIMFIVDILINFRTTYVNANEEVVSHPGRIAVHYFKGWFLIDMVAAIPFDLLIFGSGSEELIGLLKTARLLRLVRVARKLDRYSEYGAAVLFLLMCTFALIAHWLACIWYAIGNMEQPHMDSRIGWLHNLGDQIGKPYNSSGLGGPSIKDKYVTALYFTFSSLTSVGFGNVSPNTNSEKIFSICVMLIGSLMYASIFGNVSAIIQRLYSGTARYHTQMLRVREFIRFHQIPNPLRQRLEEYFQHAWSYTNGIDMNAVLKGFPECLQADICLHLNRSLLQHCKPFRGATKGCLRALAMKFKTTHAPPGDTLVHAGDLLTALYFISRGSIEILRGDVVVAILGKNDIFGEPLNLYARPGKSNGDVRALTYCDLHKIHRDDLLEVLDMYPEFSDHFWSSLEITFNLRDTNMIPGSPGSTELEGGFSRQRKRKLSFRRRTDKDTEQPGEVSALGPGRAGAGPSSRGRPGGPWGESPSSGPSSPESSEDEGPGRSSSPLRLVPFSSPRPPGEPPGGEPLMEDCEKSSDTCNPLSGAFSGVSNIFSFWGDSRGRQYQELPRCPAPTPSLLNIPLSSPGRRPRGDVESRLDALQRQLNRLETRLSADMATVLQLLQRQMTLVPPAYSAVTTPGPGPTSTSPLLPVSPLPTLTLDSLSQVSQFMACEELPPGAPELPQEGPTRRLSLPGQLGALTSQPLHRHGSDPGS
row,Compound,"hERG current change (%, negative = inhibition) at 10uM"
1,CCOC(=O)c1ccc(-n2cc(C(=O)c3cccnc3)nn2)cc1,19.4%
2,CCc1ccc(NC(=O)CSCCN2C(=O)c3ccccc3C2=O)cc1,-14.6%
3,CCOc1cc(NC(=O)c2cnccn2)c(OCC)cc1NC(=O)c1cccc(F)c1,1.09%
4,O=S(=O)(c1cccc(-c2csc(-c3cccnc3)n2)c1)N1CCCCC1,-13%
5,Fc1cccc(CCN2CCNC[C@H]2Cc2cccc3ccccc23)c1,-16.9%
6,O=C(NCCO)/C(=C/c1cccc([N+](=O)[O-])c1)NC(=O)c1ccco1,26.5%
7,Cc1ccc(NC(=O)C(CC(C)C)NC(N)=O)cc1Cl (stereo not drawn),-18%
8,COc1ccc(-n2c(=S)[nH]c3sc(-c4ccccc4)cc3c2=O)c(OC)c1,-7.84%
9,Cc1ccc(N(C)C2=NC(=O)CS2)cc1Cl,10.5%
10,O=C(CCc1ccccc1)N=C1SC2CS(=O)(=O)CC2N1Cc1ccccc1 (stereo not drawn),16%
11,Cc1ccc(NC(=O)CN2C(=O)S/C(=C\c3ccccn3)C2=O)cc1,23.3%
12,CCOc1ccccc1-n1nnnc1SCC(=O)NCc1ccco1,5.25%
13,c1ccc(OCC2CO2)cc1 (stereo not drawn),18.1%
14,CNC1(c2nnnn2-c2c(C)cccc2C)CCOC(C)(C)C1 (stereo not drawn),8.99%
15,O=C(CCc1ccccc1)Nc1nccs1,14.9%
16,CS(=O)(=O)N1N=C(c2cccs2)CC1c1ccco1 (stereo not drawn),-4.01%
17,CN1CCN(C(=S)Nc2ccc(Cl)cc2)CC1,5.64%
18,O=c1cc(N2CCCCC2)c(-c2ccccc2)nn1Cc1ccc(Cl)cc1,-1.99%
19,CC(NS(=O)(=O)c1ccc(OCC(=O)N2CCCC2)cc1)c1ccccc1 (stereo not drawn),2.97%
20,CCN(CC)S(=O)(=O)c1cc([N+](=O)[O-])ccc1NNC(=O)Nc1ccc(Cl)c(Cl)c1,13%
21,COC(=O)c1ccc(C2c3c(oc4cc(C)c(C)cc4c3=O)C(=O)N2CCCN(C)C)cc1 (stereo not drawn),-5.61%
22,O=C(CCC1CCN(C(=O)Cc2c(F)cccc2F)CC1)NC1CC1,11.9%

row,Compound,"hERG current change (%, negative = inhibition) at 10uM"
1,COc1ccc(C(=S)N2CCN(S(=O)(=O)c3ccccc3)CC2)cc1,-5.63%
2,CC(C)N(C(=S)Nc1cc(S(=O)(=O)N2CCOCC2)ccc1Cl)c1ccccc1,-14%
3,Cc1cc(C)n2cc(CSCc3ccccc3)nc2n1,-36.9%
4,COc1ccc(C)cc1NS(=O)(=O)c1ccc2c(c1)n(C)c(=O)n2C,-10.8%
5,COc1ccccc1N1CCN(c2cc(=O)n(Cc3ccc(F)cc3)c(=O)[nH]2)CC1,9.47%
6,Cc1ccc(S(=O)(=O)N2CCN(C)CC2)c(C)c1,11.8%
7,COc1ccc(N/N=C(/C#N)S(=O)(=O)c2nsc(C)c2C#N)cc1,-5.1%
8,CC(C)n1c(NCc2c[nH]c3ccccc23)nc2ccccc21,-25.6%
9,CCCCCCC1CC(CC(=O)Nc2ccc([N+](=O)[O-])cc2)C(=O)O1 (stereo not drawn),-12.4%
10,COc1cc(NC(=S)NCCc2ccccc2)c(OC)cc1NC(=O)CC(C)C,20.4%
11,CC(=O)NC(CC(C)C)C(=O)NC(CO)C(=O)NC(CCC(=O)O)C(=O)NC(C)C(=O)NC(CC(C)C)C(N)=O.O=C(O)C(F)(F)F (stereo not drawn) (Ac-LSEAL-NH2; configuration not given here),10.2%
12,CCOC(=O)NNS(=O)(=O)c1cc(Br)ccc1Br,6.21%
13,CCNc1nc(NCC)nc(N/N=C/c2ccc(O)c(OC)c2)n1,3.51%
14,NC(=O)c1ccccc1NC(=O)CC12CC3CC(CC(Br)(C3)C1)C2,16.9%
15,COc1ccc(NC(=S)NC2CCCCC2)cn1,17.2%
16,O=C(Nc1cc(S(=O)(=O)Nc2ccc(Cl)cc2)ccc1O)c1ccc(S(=O)(=O)N2CCCCCC2)cc1,15.5%
17,CN(C(=O)C12CC3CC(CC(C3)C1)C2)C1CCS(=O)(=O)C1 (stereo not drawn),21%
18,Nc1nc2c(nc(N3CCCCC3)n2[C@@H]2O[C@H](CO)[C@@H](O)[C@H]2O)c(=O)[nH]1,10.1%
19,COc1cccc(/C=N/NC(=O)C(=O)NCc2cccnc2)c1,8.3%
20,CCCCCCCN1C2=NCCN2c2ccccc21.Cl,-79.6%
21,CC1CCN(S(=O)(=O)c2ccc(NC(=O)CCN3C(=O)c4ccccc4C3=O)cc2)CC1,-11.3%
22,O=S(=O)(N/N=C\c1ccc2c(c1)OCO2)c1ccccc1,7.03%

row,Compound,"hERG current change (%, negative = inhibition) at 10uM"
1,O=C(Cn1ccc2cc(S(=O)(=O)N3CCCC3)ccc21)NCc1ccco1,-5.95%
2,CCN(c1ccc(OCC(=O)OCC(=O)Nc2ccc(F)c(F)c2F)cc1)S(=O)(=O)c1ccccc1,1.63%
3,O=C(NCc1ccccc1)C(c1ccco1)N(C(=O)c1csnn1)c1ccccc1F (stereo not drawn),3.07%
4,Nc1ncc(Br)cc1S(=O)(=O)NC1CCCCC1,-30.3%
5,COc1ccc2c(COC(=O)CC3Sc4ccccc4NC3=O)cc(=O)oc2c1 (stereo not drawn),-44.1%
6,CCn1c(=O)n(CC(=O)NCC2CCCO2)c(=O)c2c3c(sc21)CCCC3 (stereo not drawn),-4.82%
7,CN(C(=O)Oc1ccc(C(C)(C)C)cc1)c1ccccc1,23.1%
8,CCOc1cc(C2/C(=C(\O)c3cc(C)ccc3C)C(=O)C(=O)N2CCN(C)C)ccc1O (stereo not drawn),-1.08%
9,Cc1ccc(S(=O)(=O)N(C)S(=O)(=O)c2ccc(C)cc2)cc1,-2.03%
10,Cc1cc(C(=O)N/N=C/c2cc(Br)ccc2OC(=O)c2ccccc2Cl)n[nH]1,13.4%
11,O=C1CC(C(=O)N2CCCc3ccccc32)CN1c1ccc(F)cc1 (stereo not drawn),-22.2%
12,CCc1nnc(NC(=O)CSc2nc3cccnc3n2C2CCCCC2)s1,-23.3%
13,Cc1cc(-c2ccccc2)nc2c(Br)c(C(=O)O)nn12,3.5%
14,CCCn1c(Cc2ccccc2)nnc1SCC(=O)N1CCOCC1,16.7%
15,O=C(O)CSc1nc2c(c(C(F)(F)F)n1)CCCC2,11.3%
16,O=C(c1cccc(C(F)(F)F)c1)N1CCN(CCc2ccccc2)CC1,-47.8%
17,C#CCOCCOCCOCCNc1nc(N2CCN(C(=O)[C@H](Cc3ccc(O)cc3)n3cc(C(N)CC(C)C)nn3)CC2)nc(N2CCN(C(=O)[C@H](CCC(=O)O)n3cc(C(N)[C@H](C)CC)nn3)CC2)n1.Cl (stereo partly drawn),12.5%
18,CCc1ccc(CN(C)C(=O)c2cc(S(=O)(=O)N3CCOCC3)ccc2N2CCCC2)cc1,-50.1%
19,N#CCSc1nc2c(cc1C#N)CCCC2,-12.2%
20,O=c1[nH]c2ccc(Br)cc2c(-c2ccccc2)c1CN1CCOCC1,-65.7%
21,CC(=O)Nc1cccc(NC(=O)COC(=O)C2CC3CCCC(C2)C3=O)c1 (stereo not drawn),22.6%
22,Br.O=C(CN1C2=NCCN2c2ccccc21)c1ccc(Br)s1,-64.5%

row,Compound,"hERG current change (%, negative = inhibition) at 10uM"
1,COc1ccc(CC(=O)N2CC(=O)N(CCc3ccccc3)C(=O)C2)cc1,-24.8%
2,CC(=O)Nc1c(C)ccc2nsnc12,-4.08%
3,CNc1oc(-c2ccc(C)cc2)nc1P(=O)(c1ccccc1)c1ccccc1,-1.88%
4,CCOC(=O)C1(Cc2cccc(F)c2)CCN(C(=O)C2CCOCC2)CC1,-15%
5,CCCC(NCC(=O)Nc1cc(S(=O)(=O)N2CCOCC2)ccc1OC)c1ccccc1 (stereo not drawn),-21.4%
6,CC(C)(C)c1sc(N)nc1-c1ccccc1,4.66%
7,CCN(CC)S(=O)(=O)c1ccc(Cl)c(NC(=O)COc2ccc(OC)cc2[N+](=O)[O-])c1,27.4%
8,Nc1c(C(=O)CSc2nnc(Cc3ccccc3)o2)c(=O)[nH]c(=O)n1C1CC1,4.89%
9,O=C(OCc1cncs1)c1cccs1,14.3%
10,Cc1ccc(C)c(C(=O)COc2ccc(C)nc2[N+](=O)[O-])c1,6.8%
11,NNC(=O)c1ccc(O)cc1,5.24%
12,C=CCn1c(-c2ccccc2[N+](=O)[O-])n[nH]c1=S,17%
13,Cc1oc2c(F)c(F)c(F)c(F)c2c1S(=O)(=O)Nc1cccc(C(F)(F)F)c1,-43.7%
14,Cc1cc(NC(=O)CCC(=O)N(CCC(C)C)C(C(=O)NC2CCCC2)c2cccnc2)no1 (stereo not drawn),1.53%
15,O=C(NCc1ccccc1)N1CCn2c(nc3ccccc32)C1,2.53%
16,CCC(CC)C(=O)Nc1cc(OC)c(OC)cc1C(=O)O,2.98%
17,CC(C(=O)N1CCN(Cc2ccccc2)CC1)n1ncn2cccc2c1=O (stereo not drawn),-4.84%
18,CSc1ccccc1NC(=O)Nc1ccccc1,16.9%
19,CN1C(=O)C(=Cc2ccccc2OCCOc2ccc([N+](=O)[O-])cc2)C(=O)N(C)C1=O,-44.7%
20,COc1ccc(-n2c(=S)[nH]c3ccccc32)cc1,1.28%
21,CCOc1ccc2c(c1)OC(c1ccc(OC)cc1)(C(F)(F)F)NC2=O (stereo not drawn),-4.4%
